According to patent publication US20180201654A1, “PEPTIDE INHIBITORS OF HAUSP DEUBIQUITINASE” (priority 2012, published 2018):
Where no end group is shown, it is not given here.

Biological target: full length HAUSP (Homo sapiens, UniProt Q93009)
Conditions: GST-vIRF4 constructs single transfected, GST-pulldown

Substance: vIRF4^237-256: GST-vIRF4 construct of aa 237-256 transfected into cells ({GST}-DPPAPSTLTGPSDPHSSGAG; UniProt Q2HR73 237-256, looked up, fragment)
- interaction with full length HAUSP in vivo: little or no HAUSP binding
